“And” between values parts separate entries of the source, which are not always exact repeats. Equal entries are not always repeated. In all, about 5,300 compounds were measured (“PER2::LUC luminescence relative to vehicle control”: median about 0.96, highest 2% from about 1.3 on). This is one part of the list.
Test system: mPer2Luc MEF
Test: PER2::LUC luminescence relative to vehicle control (fold of vehicle); higher = higher PER2::LUC reporter signal
Settings: 10 µM
Outline: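 Each value gives PER2::LUC luminescence as fold of vehicle control, measured with the ONE-Glo luciferase assay system in mouse embryonic fibroblasts carrying the mPer2Luc reporter. Cells grown in DMEM with 10% FBS at 37 °C and 5% CO2 were seeded at ~3000 per well in 384-well plates. Library compounds were added at 10 μM 48 h later, and readings were taken 24 h and 30 h after treatment.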

SMILES | PER2::LUC luminescence (time after treatment 24 h) | PER2::LUC luminescence (time after treatment 30 h)
CC(=O)[C@H]1[C@H](C#N)C[C@H]2[C@@H]3CC=C4C[C@@H](O)CC[C@]4(C)[C@H]3CC[C@@]21C | 0.924 | 0.94
COc1cc(Nc2ncc3c(n2)-c2ccc(Cl)cc2C(c2c(F)cccc2OC)=NC3)ccc1C(=O)O | 0.902 and 0.778 | 0.925 and 0.814
OC(CCN1CCCCC1)(c1ccccc1)c1ccccc1 | 0.877 and 0.826 | 0.821 and 0.742
C[C@H]1C(=O)CC[C@@H]2[C@]1(C)CC[C@H]1[C@@]2(C)CC[C@@]2(C)[C@@H]3CC(C)(C)CC[C@]3(C)CC[C@]12C | 0.971 | 0.998
CCCCC(=O)N(Cc1ccc(-c2ccccc2-c2nnn[nH]2)cc1)[C@H](C(=O)O)C(C)C | 0.77 | 0.941
O=C1c2cccc(O)c2C(=O)c2c(O)cccc21 | 0.742 and 0.482 | 1.16 and 1.05
O=C1C[C@@H](c2ccc(O)c(O)c2)Oc2c1ccc(O[C@@H]1O[C@H](CO)[C@@H](O)[C@H](O)[C@H]1O)c2O | 0.937 | 0.969
CN1c2ccccc2C(=O)N2CCc3c([nH]c4ccccc34)C21 (stereo in doubt) | 0.589 | 0.628
CCOC(N)=O | 0.792 | 0.963
O=c1cc(N2CCOCC2)oc2c(-c3ccccc3)cccc12 | 0.513 | 0.532
N[C@H](C(=O)O)c1ccc(C(=O)O)c(O)c1 | 1.02 | 0.946
O=C(O)c1cc(=O)c2ccccc2[nH]1 | 1.08 | 0.931
Cc1cnc(NC(=O)Nc2cc(Br)c(C)cc2OC[C@@H]2CNCCO2)cn1 | 0.814 | 0.739
CCCCCCCCCCCC[C@@H](C(=O)O)[C@H](C)C(=O)O | 1.06 | 1.05
CCNC(=O)Nc1ccc(-c2nc3c(c(N4CCOC[C@@H]4C)n2)CCN(c2ncccn2)C3)cc1 | 0.196 | 0.242
CSCC[C@H](NC(=O)[C@H](Cc1c[nH]c2ccccc12)NC(=O)CCNC(=O)OC(C)(C)C)C(=O)N[C@@H](CC(=O)O)C(=O)N[C@@H](Cc1ccccc1)C(N)=O | 0.98 | 0.915
Cc1ccc(Sc2cncc3sc(C(N)=O)cc23)cc1 | 1.08 | 1.19
CC(C)NNC(=O)c1ccncc1 | 0.629 and 0.387 | 0.999 and 0.656
Cc1c(C(=O)Nc2ccc(N3C[C@@H](C)O[C@@H](C)C3)nc2)cccc1-c1ccc(OC(F)(F)F)cc1 | 0.915 and 0.802 and 0.772 | 0.898 and 0.872 and 0.857
CN(c1ncccc1CNc1nc(Nc2ccc3c(c2)CC(=O)N3)ncc1C(F)(F)F)S(C)(=O)=O | 0.707 and 0.553 | 0.53 and 0.531
CC1(COc2ccc(CC3SC(=O)NC3=O)cc2)CCCCC1 (stereo not drawn) | 1.26 | 1.31

SMILES | PER2::LUC luminescence (time after treatment 24 h) | PER2::LUC luminescence (time after treatment 30 h)
CN(C)CCc1c[nH]c2ccc(CS(=O)(=O)N3CCCC3)cc12 | 0.796 and 1.17 | 0.899 and 1.08
Cn1nc(C(C)(C)C)cc1C(=O)N[C@@H](Cc1cccc(Cl)c1)C(=O)NCC#N | 1.12 | 1.09
O=C(Nc1ccccc1)N1CCN(c2nc(-c3ccccc3)ns2)CC1 | 0.965 | 1.15
Clc1cccc(CN=C2Nc3ccccc3NC23CCNCC3)c1 | 0.739 | 0.742
FC(F)(F)COB(OCC(F)(F)F)OCC(F)(F)F | 0.958 | 1
CCN1CCCC1CNC(=O)c1cc(S(N)(=O)=O)ccc1OC (single isomer, unassigned; (-)) | 0.865 | 0.962
O=C(O)CCC(=O)c1ccc(-c2ccccc2)cc1 | 0.819 | 1.19
C[C@H]1[C@H](C)CC[C@]2(C(=O)O)CC[C@]3(C)C(=CC[C@@H]4[C@@]5(C)C[C@@H](O)[C@H](O)[C@@](C)(CO)[C@@H]5[C@H](O)C[C@]43C)[C@H]12 | 0.951 | 1.02
COc1ccc(-c2coc3cc(O)ccc3c2=O)c(OC)c1 | 1.02 | 1.05
CC(=O)N(C/C=C(\C)CCC=C(C)C)[C@@H](CS)C(=O)O | 1.05 | 1.03
N[C@@H](Cc1ccc(O)c(O)c1)C(=O)O | 0.929 and 0.725 | 0.802 and 0.885
CCCCc1ncc(/C=C(\Cc2cccs2)C(=O)O)n1Cc1ccc(C(=O)O)cc1 | 0.981 | 1.08
CCC(C)C(NC)C(=O)O (stereo not drawn) | 0.911 | 1.2
CN1CCCN(C(=O)c2cccc(-c3ccc(/C=C4/C(=O)Nc5ccc(Cl)cc54)o3)c2)CC1 | 0.948 | 0.707
CCCCCCCCOc1ccccc1C(=O)Nc1ccc(C(=O)OCC[N+](C)(CC)CC)cc1 | 1.11 | 1
CN1CCN2c3ccccc3Cc3ccccc3C2C1 (stereo not drawn) | 0.699 | 0.809
Cc1nc2sccn2c(=O)c1CCN1CCC(=C(c2ccc(F)cc2)c2ccc(F)cc2)CC1 | 0.909 | 0.823
CO[C@H]1C[C@H](O[C@@H]2/C(C)=C/C[C@@H]3C[C@@H](C[C@]4(CC[C@H](C)[C@@H](C5CCCCC5)O4)O3)OC(=O)[C@@H]3C=C(C)/C(=N/O)[C@H]4OC/C(=C\C=C\[C@@H]2C)[C@]43O)O[C@@H](C)[C@@H]1O | 0.454 | 0.892
C[C@H](CCC(=O)O)[C@H]1CC[C@H]2[C@@H]3C(=O)C[C@@H]4CC(=O)CC[C@]4(C)[C@H]3CC(=O)[C@]12C | 0.953 and 0.695 and 0.912 | 1.04 and 1.09 and 0.869
CCOC(=O)C1=C(C)NC(C)=C(C(=O)OC)C1c1cccc(Cl)c1Cl (stereo not drawn) | 0.973 | 0.833
CCCCOC(=O)OCCCC | 1 | 1.02

SMILES | PER2::LUC luminescence (time after treatment 24 h) | PER2::LUC luminescence (time after treatment 30 h)
Cc1cc(C)c(/C=C2\C(=O)Nc3ccc(Cl)cc32)[nH]1 | 1.06 | 1.02
O=C1c2c(O)ccc(O)c2C(=O)c2c(NCCNCCO)ccc(NCCNCCO)c21 | 0.575 | 0.427
CCN1C(=O)C=CC1=O | 1.22 | 1.02
O=C(NC(Cc1cc(=O)[nH]c2ccccc12)C(=O)O)c1ccc(Cl)cc1 (stereo not drawn) | 0.677 | 0.798
COc1cc(O)cc(OC)c1OC | 0.93 | 0.903
COC(=O)/C=C/C(=O)OC | 1.13 | 0.827
COC(=O)[C@H]1[C@H]2C[C@H]3c4[nH]c5cc(OC)ccc5c4CCN3C[C@H]2C[C@@H](OC(=O)c2cc(OC)c(OC)c(OC)c2)[C@@H]1OC | 0.926 | 0.999
CNc1nc(Nc2ccc(C(=O)N3CCOCC3)cc2OC)ncc1Cl | 0.829 | 0.92
OC[C@H]1O[C@@H](O[C@H]2[C@H](O)[C@@H](O)C(O)O[C@@H]2CO)[C@H](O)[C@@H](O)[C@H]1O (stereo partly drawn) | 1.03 | 1.06
COC(=O)C[C@H]1C2(C)CC34OC5(C)O[C@@]6([C@H](OC)C(OC(=O)C(C)C)[C@]7(C)C(/C(=C(/OC)C(C)C)C(=O)O[C@H]7c7ccoc7)[C@@]6(O5)[C@H](OC)[C@@]3(OC)C2OC(C)=O)[C@]14C (stereo partly drawn) | 0.954 | 0.978
C[N+](C)(C)CCOC(N)=O | 0.681 | 1.23
CC(C)c1cc(C(C)C)c(CC(=O)NS(=O)(=O)Oc2c(C(C)C)cccc2C(C)C)c(C(C)C)c1 | 1.05 | 0.874
CC(C)(C)NC[C@H](O)COc1cccc2c1CCCC2=O | 0.93 | 0.875
OC[C@H]1NC[C@@H](O)[C@@H]1O | 1.04 | 0.79
CC(C)[C@H](NC(=O)OCc1ccccc1)C(=O)N[C@H](C=O)Cc1ccccc1 | 0.941 | 0.887
CCCNC(C)(C)COC(=O)c1ccccc1 | 0.894 | 0.968
Cc1c(C(=O)N2CCOc3ccc(-c4ccc(N)nc4)cc3C2)ccc(S(C)(=O)=O)c1F | 0.365 | 0.4
C=C[C@@]1(C)CC(=O)[C@@]2(O)[C@](C)(O1)[C@@H](O)[C@@H](O)C1C(C)(C)CC[C@H](O)[C@@]12C (stereo partly drawn) | 0.964 | 0.709
C[C@H](Nc1ncnc2nc[nH]c12)c1cc2cccc(Cl)c2c(=O)n1-c1ccccc1 | 0.643 | 0.535
O=C1CSc2ccccc2N1Cc1cccc(C(F)(F)F)c1 | 0.887 | 0.88
CC(=O)Nc1ccc(OC(C)=O)cc1 | 0.973 and 0.928 | 1.08 and 0.975

SMILES | PER2::LUC luminescence (time after treatment 24 h) | PER2::LUC luminescence (time after treatment 30 h)
NC1CCN(c2c(F)cc3c(=O)c(C(=O)O)cn(C4CC4)c3c2Cl)C1 (stereo not drawn) | 0.93 and 0.841 | 0.919 and 0.915
NC[C@@H]1O[C@H](O[C@H]2[C@@H](O)[C@H](O[C@@H]3[C@@H](O)[C@H](N)C[C@H](N)[C@H]3O[C@H]3O[C@H](CN)[C@@H](O)[C@H](O)[C@H]3N)O[C@@H]2CO)[C@H](N)[C@@H](O)[C@@H]1O | 1.01 and 1.06 | 0.842 and 1.08
CCC1(C)CC(=O)NC1=O (stereo not drawn) | 0.883 | 1.18
CC(C)(O)CC(=O)NCCn1ccc2ncnc(Nc3ccc(Oc4cccc(C(F)(F)F)c4)c(Cl)c3)c21 | 0.931 | 0.834
Cc1nc2c([nH]1)c(=O)n(C)c(=O)n2Cc1ccco1 | 1.05 | 0.952
c1cc(OCCN2CCCCC2)cc(-c2n[nH]c3ccc(-c4nnc[nH]4)cc23)c1 | 0.76 | 1
C[N+](C)(CCOc1ccccc1)Cc1ccccc1.O=C([O-])c1cc2ccccc2cc1O | 1 | 0.993
CC(NCCc1ccc(O)cc1)C(O)c1ccc(O)cc1 (stereo not drawn) | 1.1 | 1.08
COc1ccc(C(C)=O)c(OC)c1 | 0.865 | 0.95
CC(=O)N[C@H]1[C@H]([C@H](O)[C@H](O)CO)O[C@@](Oc2c[nH]c3ccc(Br)c(Cl)c23)(C(=O)O)C[C@@H]1O | 1 | 0.967
CCc1nn(CCCN2CCN(c3cccc(Cl)c3)CC2)c(=O)n1CCOc1ccccc1 | 0.812 and 0.818 | 0.781 and 0.615
NC1CONC1=O (racemic) | 1.02 | 0.833
CC(C)c1cnn2c(NCc3ccccc3)cc(NCCCCCCN)nc12 | 0.368 and 0.467 | 0.899 and 0.658
CN(C)CCCc1cc(C(=O)Nc2ccc(-c3ccncc3)cc2)ccc1O | 0.539 | 0.511
CN1CCN(c2ccc3[nH]c(-c4ccc5[nH]c(-c6ccc(O)cc6)nc5c4)nc3c2)CC1 | 0.495 | 0.54
O=C(c1ccc(F)c(F)c1Nc1ccc(I)cc1F)N1CC(O)([C@@H]2CCCCN2)C1 | 0.07 | 0.035
O=S(=O)(c1cccc2cnccc12)N1CCCNCC1 | 0.819 and 0.725 | 0.846 and 0.795
COc1cc2nc(N3CCCN(C)CC3)nc(NC3CCN(Cc4ccccc4)CC3)c2cc1OC | – | 1.03 and 1.15 and 0.389
CCC(C)(C)C(=O)O[C@H]1C[C@@H](C)C=C2C=C[C@H](C)[C@H](CC[C@@H]3C[C@@H](O)CC(=O)O3)[C@H]21 | 0.454 | 0.415
